# Measured values published in paper PMC6919601, “Identification of Plasmodium dipeptidyl aminopeptidase allosteric inhibitors by high throughput screening” (PLoS ONE, 2019).
# Among all 110,000 compounds or so, about 230 (0.21%) showed an effect of 50% or more. Some of the results follow.
# Biological target: DPAP1 (Plasmodium falciparum, UniProt Q8IIJ9)
# Assay: primary screen, percent inhibition; read by cleavage of a fluorogenic dipeptide substrate; higher = more effect of the substance
# Design: species or system P. falciparum D10 trophozoite lysates; single well
# 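Further: 30 min substrate incubation versus DMSO and 10 µM JCP410 controls.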
# Sequence of DPAP1 (Q8IIJ9 whole entry, looked up): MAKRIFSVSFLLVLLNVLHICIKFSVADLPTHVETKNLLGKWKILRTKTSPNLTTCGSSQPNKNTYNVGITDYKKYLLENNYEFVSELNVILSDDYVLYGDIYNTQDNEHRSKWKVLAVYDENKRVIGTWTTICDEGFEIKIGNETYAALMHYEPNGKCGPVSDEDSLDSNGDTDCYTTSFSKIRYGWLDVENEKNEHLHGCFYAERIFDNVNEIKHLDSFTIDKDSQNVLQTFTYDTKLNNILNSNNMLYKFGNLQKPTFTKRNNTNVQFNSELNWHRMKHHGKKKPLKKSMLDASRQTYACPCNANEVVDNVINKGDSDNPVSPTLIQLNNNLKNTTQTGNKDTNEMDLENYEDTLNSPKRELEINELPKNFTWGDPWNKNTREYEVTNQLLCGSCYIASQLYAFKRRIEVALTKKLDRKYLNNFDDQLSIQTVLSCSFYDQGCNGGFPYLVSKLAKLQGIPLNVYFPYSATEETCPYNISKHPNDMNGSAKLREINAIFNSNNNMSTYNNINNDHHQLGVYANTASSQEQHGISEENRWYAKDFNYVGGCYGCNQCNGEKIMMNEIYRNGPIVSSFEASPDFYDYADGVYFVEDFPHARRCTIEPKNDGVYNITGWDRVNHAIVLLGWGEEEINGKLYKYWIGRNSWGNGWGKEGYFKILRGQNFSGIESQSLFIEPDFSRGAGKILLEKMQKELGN
row,Structure (SMILES),% Inhibition @ 10 uM
1,CC(C)C[C@H](NC(=O)OCCC1CCCCC1)C(=O)NCC#N,-6.68%
2,O=C(C1CCN(S(=O)(=O)N2CCCC2)CC1)N1CCc2ccccc2C1,2.18%
3,O=c1oc2ccc([N+](=O)[O-])cc2cc1-c1nc(-c2cccs2)cs1,3.03%
4,COCCNC(=S)NCCc1c(C)[nH]c2ccc(C)cc12,-2.16%
5,CC(=O)N1CCC(CC(NC(=O)c2ccccc2)C(=O)NCC#N)CC1 (centres unmarked),-3.7%
6,CC(C)c1ccc(/C=C/C(=O)Nc2ccc(F)cc2)cc1,-2%
7,O=C1C2=C(c3ccccc3CC23CCCCC3)N2CCCN=C2N1Cc1ccccc1,-2.26%
8,CC1(C)CC2=Nc3c(c(=O)[nH]c(=O)n3Cc3ccccc3)C(c3cccs3)C2=C(O)C1 (centres unmarked),1.01%
9,Cc1nn(C)c(C)c1/C=C(\C(=O)c1ccc(Cl)cc1Cl)n1cncn1,0.76%
10,COc1cccc2c(O)c(NC(=O)NCCCO)cnc12,2.05%
11,CC1CCN(S(=O)(=O)c2ccc(NC(=O)COc3cccc4ccccc34)cc2)CC1,-5.32%
12,CC(=O)N1CCN(Cc2ccc(F)c(F)c2)CC1,-3.27%
13,Cc1ccc(S(=O)(=O)N2CCN(C(=O)CN3CCCC3)C2C(C)C)cc1 (centres unmarked),-2.26%
14,COc1cccc(C2=N/C(=C\C(C)=C\c3ccccc3)C(=O)O2)c1,-2.07%
15,N#Cc1ccccc1CO/N=C(\N)c1nonc1N,3.87%
16,O=C1CC(c2ccccc2)CC(O)=C1/C=N/c1cc(Br)ccc1O (centres unmarked),10.7%
17,Cc1n[nH]c(SCC(=O)c2c[nH]c3ccccc23)n1,0.146%
18,CCOC(=O)N1CCN(c2ncnc3c2cnn3-c2ccccc2)CC1,-2.31%
19,C=CCN1C(=O)C(CC(=O)Nc2ccccc2)S/C1=N\c1ccc(C(C)=O)cc1 (centres unmarked),-1.95%
20,O=C(NCC1CCN(C(=O)c2ccc3c(c2)OCO3)CC1)c1ccc2c(c1)OCO2,-1.61%
21,Cc1ccccc1OCC(=O)NC1CCCCC1,-1.65%
22,c1ccc2c(c1)nc(N1CCCCCC1)c1ccccc12,1.84%

row,Structure (SMILES),% Inhibition @ 10 uM
1,COc1nc(C)nc(NC(=O)NS(=O)(=O)N2CCOCC2)n1,-1.22%
2,COc1ccc(C2=N/C(=C\c3sccc3C)C(=O)O2)cc1Br,-1.82%
3,O=C(COc1ccc(Cl)cc1)N(Cc1ccccc1F)C1CCS(=O)(=O)C1 (centres unmarked),-1.35%
4,O=C(O)c1ccc2[nH]c(-c3cccc(-c4nc5cc(C(=O)O)ccc5[nH]4)c3)nc2c1,7%
5,O=C(CCCSc1nc2ccccc2s1)N1CCN(c2ncccn2)CC1,4.61%
6,CCCCNC(=O)c1cc2c(s1)-c1ccccc1SC2,4.41%
7,C=CCN1C(=O)/C(=C\NC(C)CC)C(=O)NC1=S (centres unmarked),-7.88%
8,CC(C)COc1cc(O)nc(S)n1,-1.69%
9,O=C(NCc1cccnc1)c1nnc(-c2cccnc2)o1,4.47%
10,C/C(=C\c1ccco1)C(=O)c1c(C)cc(C)nc1O,0.135%
11,Cc1ccc2nc(N(CCN(C)C)C(=O)c3ccc(Br)s3)sc2c1,-8.86%
12,CC1=C(C(=O)Nc2ccc(F)cc2)C(c2ccccc2Cl)C2=C(O)CCCC2=N1 (centres unmarked),2.38%
13,CCc1c(C)sc(NC(=O)c2cccs2)c1C(N)=O,1.27%
14,COC(=O)c1nc2nc(-c3cccs3)cc(C(F)(F)F)n2n1,1.4%
15,Oc1c(Cl)cc(Cl)cc1CN1CCc2ccccc2C1,-1.5%
16,CCOc1cccc(/C=C2/SC(=O)N(CC(=O)N3CCN(c4ccccc4)CC3)C2=O)c1O,1.86%
17,CCN1C(=O)C(CC(=O)Nc2ccccc2)S/C1=N/c1ccc(S(N)(=O)=O)cc1 (centres unmarked),-5.83%
18,O=C(Nc1ccc(Cl)cc1)NC(CC(=O)c1ccc([N+](=O)[O-])cc1)C(Cl)(Cl)Cl (centres unmarked),-5.5%
19,CC(C)Cn1c(CN2CCCCC2)nc2c1c(=O)n(C)c(=O)n2C,0.317%
20,Cc1cccc(NC(=O)CSc2nc(C)cc(C)c2C#N)n1,5.66%
21,Cc1ccc(CCSc2ccc(C(C)C)cc2)cn1,0.266%
22,CCOc1cc2c(cc1OCC)C(C(=O)O)C(c1ccc(OC)c(O)c1)N(C)C2=O (centres unmarked),-4.23%

row,Structure (SMILES),% Inhibition @ 10 uM
1,Brc1ccc(-c2csc(N3N=C(c4ccccc4)CC3c3ccccc3)n2)cc1 (centres unmarked),-2%
2,CS(=O)(=O)N(CC(=O)N1CCN(c2cccc(Cl)c2)CC1)c1cccc(Cl)c1Cl,1.72%
3,COc1cccc(-c2nc(O)c3c(n2)Oc2c(C)cccc2C3)c1OC,6.98%
4,Cn1c(=O)c2c(nc(SCC(=O)Nc3ccccc3)n2Cc2ccccc2)n(C)c1=O,-2.88%
5,O=C(NCCC1=CCCCC1)c1cnn2c(C(F)(F)F)cc(-c3cccs3)nc12,7.37%
6,CCN(C(=O)Nc1cccc(Cl)c1)c1ccccc1,1.96%
7,CCc1ccc(C2N(c3nccs3)C(=O)C3CCCN32)cc1 (centres unmarked),1.23%
8,CCn1c(C(=O)NCCCN2CCOCC2)cc2sc(Cl)cc21,-6.68%
9,Cc1cccn2c(=O)c3cc(C(=O)NCc4ccco4)n(C)c3nc12,0.331%
10,Cc1ccc2oc(-c3ccc(Cl)c(Cl)c3)c(O)c(=O)c2c1,-1.69%
11,CCOC(=O)c1ccc2[nH]c3c(c2c1)CCCC3NC=O (centres unmarked),2.7%
12,CC(=O)NC(Cc1ccccc1)Cc1ccccc1,0.968%
13,Cn1c(=O)c(C#N)cn(Cc2ccc(Cl)c(Cl)c2)c1=O,-6.69%
14,CC(=O)N1c2ccccc2N=C2CC(C)(C)CC(O)=C2C1c1ccc(C(F)(F)F)cc1 (centres unmarked),3.72%
15,CC(C)(C)S(=O)(=O)c1ccncc1,4.93%
16,COc1ccc(OCc2ccc(C3C(C#N)=C(N)OC4=C3C(=O)CCC4)cc2OC)cc1 (centres unmarked),-0.318%
17,CC(=O)NC1(C2CCCCC2=O)CCCCC1 (centres unmarked),-4.96%
18,CC(CN1CCN(c2ccccc2F)CC1)c1ccccc1 (centres unmarked),-5.11%
19,CCN(CC)CCOc1cccc(Cl)c1,1.29%
20,Cc1ccc(CNC(=O)C2CCC(CNS(=O)(=O)c3csc(C(N)=O)c3)CC2)cc1 (centres unmarked),-1.59%
21,CC(C)C[C@H](NC(=O)OCc1ccccc1)C(=O)N[C@H](C#N)CCC(=O)OCc1ccccc1,11.1%
